# Reference: PubChem BioAssay AID1963576 (National Center for Advancing Translational Sciences (NCATS), 2024)
# About 60 (0.1%) of roughly 46,000 compounds were called active. Another 3% or so got no clear call; they are omitted. Calls come from the whole dose curve; as a rule, active = well fitted inhibition curve with a large enough effect; inconclusive = small, poorly fitted or top-dose-only effect; inactive = no such curve, though single readings can be large or run the other way. Some of the results follow.
# Test: Primary qHTS assay for Inhibitors of ovarian cancer metastasis using an organotypic tumor microenvironment (TME) model.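 For activity change, negative = inhibition: plate controls were DMSO wells for no effect and tomatine positive control wells for full effect.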 Note: nearly all actives have a fitted effect of over 65% in size.
# Conditions: SKOV3ip1-GFP adhesion/invasion on 3D omental model, fluorescence; series mostly up to 45.8 µM; activity change, negative = inhibition: at the top concentration
# How it was run: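 qHTS, 4-pt dose (0.36-46 umol/L); SKOV3ip1-GFP, 1,200 cells/well, no FBS; primary omental fibroblast/mesothelial co-culture 48 h pre-grown; 2 h RT + 16 h 37 C; PBS wash, 4% PFA; GFP count 488/509 nm.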
Compound,outcome,"activity change, negative = inhibition"
Cc1ccc(S(=O)(=O)c2cnc(SCC(=O)Nc3ccc4c(c3)OCCO4)[nH]c2=O)cc1C,inactive,
Cc1nn2c(=O)cc(COC(=O)c3ccc(NC(=O)COc4ccc(Cl)cc4)cc3)nc2s1,,inactive: -1.89%
COc1ccc(OC)c(CNC(=O)c2cc3ccc4cccnc4c3[nH]2)c1,,inactive: 16.1%
O=c1c2oc3ccccc3c2n(Cc2ccccc2)c(=O)n1Cc1ccco1,,inactive: 0.249%
COc1ccc(C)cc1NC(=O)C(=O)NCCc1csc2nc(-c3ccccc3F)nn12,,inactive: 4.28%
CCOc1ccc(CCNc2ncnc3onc(-c4ccc(Cl)cc4)c23)cc1,inactive,
CC(C)(C)OC(=O)N1CCC(c2nnc(SCc3ccccc3F)o2)CC1,inactive,
O=C(Cn1nnc2sc(-c3ccccc3)cc2c1=O)Nc1cccc(C(F)(F)F)c1,,inactive: 1.27%
Cc1ccccc1Nc1c(-c2c[nH]c3ccccc23)nc2ccccn12,,inactive: 1.89%
CCn1nnc2cc(C(=O)Nc3ccc(C)cc3Br)ccc21,inactive,
CC1CCN(S(=O)(=O)c2ccc3nc(NCc4ccc(F)cc4)ccc3c2)CC1,,inactive: -5.32%
Cc1c(NC(=O)c2cc(-c3ccc(Br)cc3)on2)c(=O)n(-c2ccccc2)n1C,,inactive: 4.68%
CCc1ccc(NC(=O)c2sc3nc(C)c(C(=O)Nc4ccc(C)cc4C)c(-c4ccco4)c3c2N)cc1,,inactive: -0.643%
Cc1ccn2c(c1)nc(=O)c1cc(S(=O)(=O)N3CCCCC3)c(Cl)cc12,inactive,
COc1ccc(Nc2sc(C(=O)c3ccccc3)c(N)c2C(=O)Nc2cc(C)ccc2C)c(OC)c1,,inactive: -19.5%
Cc1oc(-c2ccccc2)nc1CNC(=O)NC1CCCCC1,,inactive: 5.08%
Cc1ccc(NC(=O)c2cc(S(=O)(=O)NCCC3=CCCCC3)ccc2F)cc1C,,inactive: -15.1%
Cc1cccc(-c2nc3scc(CCNS(=O)(=O)c4ccc(F)cc4C)n3n2)c1,,inactive: -2.87%
CCc1ccccc1NC(=O)CN(c1ccc(OC)cc1)S(=O)(=O)c1c(C)n[nH]c1C,inactive,
COc1cccc(CNC(=O)CCCN2C(=O)CSc3c2c(C)nn3-c2ccccc2)c1OC,inactive,
CCOC(=O)c1c(NC(=O)/C=C/c2ccc(OCC)c(OC)c2)sc2c1CCC2,inactive,
Cc1ccc(S(=O)(=O)c2nnn3c2nc(N2CCC(C)CC2)c2cc(Cl)ccc23)cc1C,,inactive: -2.9%
CCN1C(=O)c2ccccc2S(=O)c2ccc(C(=O)N3CCN(c4ccccc4)CC3)cc21 (stereo unspecified),inactive,
CCn1c(NCc2ccc(OC)c(OC)c2)nc2ccccc21,inactive,

Compound,outcome,"activity change, negative = inhibition"
COc1ccccc1C(=O)OCc1cc(=O)n2nc(C3CCCCC3)sc2n1,inactive,
Cc1cccc(NC(=O)CN2C(=O)c3ccccc3Sc3ncccc32)c1C,inactive,
Cc1cccc(CCNC(=O)C2CCN(c3ncnc4c3nc3n4CCCCC3)CC2)c1,,inactive: 2.15%
COc1ccc(CCNC(=O)CSC2=Nc3ccccc3C3=NC(CCC(=O)NCc4ccccc4)C(=O)N23)cc1OC (stereo unspecified),,inactive: -2.64%
Cc1ccc(Cl)cc1N1CCN(CCCNc2ncnc3onc(-c4ccc(Cl)cc4)c23)CC1,,inactive: -2.5%
Cc1noc2ncnc(N3CCCC(C(=O)NC(C)C)C3)c12 (stereo unspecified),,inactive: 11%
CCOc1ccccc1CNC(=O)c1ccc2c(c1)sc1nc(-c3ccccc3)cn12,,inactive: -1.48%
CCOC(=O)c1cc(-c2ccccc2)n(CCC(=O)Nc2cc(OCC)ccc2OCC)c1C,,inactive: 7.37%
COc1ccc(NC(=O)c2ccc(NC(=O)CCS(=O)(=O)c3cccs3)cc2)cc1OC,,inactive: -6.68%
CCNC(=O)Nc1ccc(Oc2ncnc(N)c2C=NOC)cc1Cl,,inactive: 5.04%
CCCCCn1c(CCCNC(=O)c2cccc(C)c2)nc2ccccc21,,inactive: -0.593%
CCOc1ccc(C(=O)Nc2ccc(-c3nc4cc(C)ccc4o3)cc2)cc1,inactive,
CCOC(=O)c1sc(NC(=O)C(C)Sc2nc(-c3ccccc3)cc(C(F)(F)F)n2)c(C(=O)OC)c1C (stereo unspecified),,inactive: 67.5%
Cc1c(C)n(Cc2ccccc2)c2ccc(C(=O)NCc3ccc(OC(C)C)cc3)cc12,,inactive: 7.54%
CCN(CC)CCCNC(=O)C1CCN(S(C)(=O)=O)CC1,,inactive: -8.05%
O=C(CCCCn1c(=O)c2ccccc2n(CC(=O)Nc2ccccc2)c1=O)NCc1ccccc1Cl,,inactive: 11.7%
Cc1cccc(N2CCN(S(=O)(=O)c3ccc4oc(=O)c5ncn(C)c5c4c3)CC2)c1C,,inactive: -5.13%
CCc1nnc2c3ccccc3nc(Nc3ccccc3OC)n12,,inactive: -4.04%
COc1ccc(Nc2nc3ccc(Cl)cc3n3nnnc23)cc1OC,,inactive: 2.28%
Cc1oc(-c2ccc(C(=O)Nc3cccc(C(F)(F)F)c3)cc2)nc1CSc1ccccc1,,inactive: -5.82%
O=C(Oc1ccccc1Cl)c1cc(-c2ccc3c(c2)OCCO3)on1,,inactive: 0.392%
COc1ccc(-c2nc3scc(CCNS(=O)(=O)c4ccc(F)c(C(F)(F)F)c4)n3n2)cc1OC,inactive,
Cc1ccc(OCCn2cc(C(=O)c3ccco3)c3ccccc32)cc1C,,inactive: -28%
COC(=O)c1scc(-c2ccc(C)cc2)c1S(=O)(=O)Nc1cccc(Cl)c1C,,inactive: -8.73%

Compound,outcome,"activity change, negative = inhibition"
Cc1ccc(NC(=O)c2cnc(N3CCCCC3)c3ccccc23)cc1Cl,,inactive: -14.1%
O=C(CCCc1nc(-c2ccccc2)no1)Nc1cc(C(F)(F)F)cc(C(F)(F)F)c1,,inactive: -16.2%
COc1ccc(NC(=O)COc2ccc(S(=O)(=O)NC3CCCCC3)cc2)c(OC)c1,,inactive: -2.51%
Cc1ccc(CNC(=O)Cn2cc(S(=O)(=O)Cc3cccc(Cl)c3)c3ccccc32)cc1,,inactive: -4.38%
COc1ccc(-c2nc3nc(C)cc(Nc4cccc(C(F)(F)F)c4)n3n2)cc1,,inactive: -9.67%
Cc1noc(Cn2c(=O)c3ccccc3n(CC(=O)Nc3ccc(F)cc3F)c2=O)n1,,inactive: 5.62%
Cc1sc(-n2cccc2)c(C(C)NC(=O)Nc2ccccc2Cl)c1C (stereo unspecified),,inactive: -2.23%
CC1=C(C(=O)Nc2ccccc2C)C(c2ccco2)n2ncnc2N1 (stereo unspecified),inactive,
CCOc1ccc(NC(=O)c2cc(S(=O)(=O)N3CCCC3)c[nH]2)cc1,,inactive: -11.5%
Cc1cc(C)c(Cn2c3ccccc3c3cnn(CC(=O)NCc4ccc(Cl)cc4)c(=O)c32)c(C)c1,,inactive: -19.1%
COC(=O)c1ccccc1NC(=O)c1cc2c(s1)-c1ccccc1OC2,,inactive: -21.4%
COc1ccc(-c2c(C#N)c(SCC(=O)Nc3ccc(Br)cc3)nc(C)c2C(=O)Nc2ccccc2)cc1,,inactive: 8.76%
O=C(CN(c1cc(C(F)(F)F)ccc1Cl)S(=O)(=O)c1ccccc1)NCCc1ccccc1,,inactive: 23%
Cc1cc(C)c(S(=O)(=O)NCCc2cc3ccc(C)cc3[nH]c2=O)c(C)c1,inactive,
CC1=C(C(=O)N2CCCCC2)C(c2cccc(Cl)c2)n2c(nc3ccccc32)N1 (stereo unspecified),inactive,
O=C(CSc1nc(-c2ccccc2)c2ccccc2n1)Nc1ccc(F)cc1,,inactive: -12.4%
OC(CN1CCN(c2cccc(Cl)c2)CC1)C(c1ccccc1)c1ccccc1 (stereo unspecified),,inactive: -20.7%
COc1ccc(NC(=O)c2c(C)oc3ccc(O)c(CN4CCCCCC4)c23)cc1,,inactive: 3.08%
CCOc1ccc(Br)cc1S(=O)(=O)Nc1cccc(-c2ccc(OC)nn2)c1,,inactive: 4.29%
Cc1ccc(C)c(N2CCN(C(=O)CN3C(=O)COc4ccc(S(=O)(=O)N5CCC(C)CC5)cc43)CC2)c1,inactive,
Cc1ccc(-c2ccc(CCC(=O)O)n2-c2cccc(C)c2C)cc1,,inactive: -2.14%
Cc1ccc(Cl)cc1N1CCN(C(=O)c2ccc3c(c2)N(Cc2ccccc2)CCS3)CC1,,inactive: 3.19%
CCn1nnc2cc(C(=O)Nc3ccc(OC)cc3)ccc21,inactive,
COc1ccc(-n2c(=O)c3c4c(sc3n(Cc3ccc(C(C)(C)C)cc3)c2=O)CCC4)c(OC)c1,inactive,

Compound,outcome,"activity change, negative = inhibition"
Cc1ccc(N2CCN(S(=O)(=O)c3ccc(-n4cnnn4)cc3)CC2)c(C)c1,inactive,
COc1cccc(NC(=O)Cc2csc(COc3cccc(C)c3)n2)c1,,inactive: -12.6%
CCOC(=O)c1c(N)n(-c2cc(C)cc(C)c2)c2nc3ccccc3nc12,,inactive: 0.294%
COc1ccc(OC)c(NC(=O)CCNC(=O)Cn2cnc3ccccc3c2=O)c1,,inactive: -3.12%
O=C(NCCc1ccccc1)c1nn(-c2ccccc2Cl)nc1CO,,inactive: -5.82%
O=C(Nc1cc(Cl)cc(Cl)c1)c1cc(S(=O)(=O)N2CCC3(CC2)OCCO3)ccc1F,,inactive: -20.6%
Fc1ccc(Nc2c(-c3ccccn3)nc3ccc(Cl)cn23)cc1,,inactive: 6.99%
CCOCCCNC(=O)c1c(NC(=O)c2nc(SC)ncc2Cl)sc2c1CCCC2,inactive,
Cc1cn2c(=O)cc(COC(=O)c3ccc(NC(=O)C(C)Oc4ccccc4)cc3)nc2s1 (stereo unspecified),,inactive: -4.23%
COc1ccc(CCNC(=O)c2cc(=O)[nH]c3ccc(S(=O)(=O)N4CCCCC4C)cc23)cc1OC (stereo unspecified),,inactive: 9.57%
Cc1ccc(C)c(-n2nnc(C(=O)Nc3ccc(Br)cc3)c2C)c1,,inactive: -5.04%
COCCn1c(C)cc(O)c(C(c2ccc(OC)cc2)N2CCN(c3ccccc3)CC2)c1=O (stereo unspecified),,inactive: 3.07%
COc1ccc(NC(=O)CN(C)S(=O)(=O)c2ccc3c(c2)c(=O)n(C)c(=O)n3C)cc1,,inactive: 67.7%
NS(=O)(=O)c1ccc(NC(=O)c2csnn2)cc1,,inactive: 0.459%
CC(C)c1ccc(NC(=O)c2cnc3sc(N4CCOCC4)nn3c2=O)cc1,inactive,
CC1CCCCN1C(=O)CSc1c2c(nc3cc(Cl)ccc13)CCCC2 (stereo unspecified),,inactive: 4.54%
CCOCCn1c(=O)c2c(nc3n2CCN3c2ccc(C)c(C)c2)n(C)c1=O,,inactive: -11.4%
COc1cccc(N2CCN(C(=O)C3CCN(S(=O)(=O)c4cn(C)cn4)CC3)CC2)c1,,inactive: -4.14%
Cc1cc(C)cc(NC(=O)COCc2cc(-c3ccc4c(c3)OCO4)on2)c1,inactive,
COc1cccc(-c2nc(CS(=O)(=O)CC(=O)NCCc3ccc(Cl)cc3)c(C)o2)c1,inactive,
Cc1cc2c(cc1S(=O)(=O)NCc1ccccc1Cl)OCC(=O)N2,,inactive: -1.15%
CCc1ccc(-n2nc(CO)c(C(=O)NCc3cccs3)n2)cc1,,inactive: 6.97%
COc1ccc(OCC2c3cc(OC)c(OC)cc3CCN2C(=O)c2c(F)cccc2F)cc1 (stereo unspecified),,inactive: -9.68%
CCCCNC(=O)c1cn(C)c2ccc(S(=O)(=O)N3CCCC3)cc2c1=O,,inactive: 9.33%
